From the supplement of paper PMC3334620
Over roughly 33,000 sequences, “E-score (-0.5 to 0.5)” has its median near -0.035; the highest 2% begin near 0.34. Some of the results follow.

Target: T1, Mot3 (UniProt P54785)
T1 sequence: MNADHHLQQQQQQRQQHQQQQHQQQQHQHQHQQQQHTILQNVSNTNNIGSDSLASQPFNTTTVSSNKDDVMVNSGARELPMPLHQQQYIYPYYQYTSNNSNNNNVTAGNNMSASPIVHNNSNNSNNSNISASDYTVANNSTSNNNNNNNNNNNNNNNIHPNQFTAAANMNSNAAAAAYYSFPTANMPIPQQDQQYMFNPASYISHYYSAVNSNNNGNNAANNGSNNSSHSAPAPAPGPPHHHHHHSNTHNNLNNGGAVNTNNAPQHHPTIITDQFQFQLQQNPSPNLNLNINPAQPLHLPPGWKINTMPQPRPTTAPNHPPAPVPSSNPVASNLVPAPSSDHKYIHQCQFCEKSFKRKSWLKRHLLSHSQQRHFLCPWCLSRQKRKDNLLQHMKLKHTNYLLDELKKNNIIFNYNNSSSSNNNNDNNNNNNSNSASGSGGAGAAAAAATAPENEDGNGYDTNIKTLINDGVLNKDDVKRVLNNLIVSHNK
Test: PBM E-score (8-mer binding enrichment) (E-score (-0.5 to 0.5)); higher = stronger / more preferred TF binding; most listed sequences are background and not binding sites
Details: protein concentration: 200 nM; construct: GST-full length
Protocol: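 Universal 'all 10-mer' protein binding microarrays (Agilent AMADID 015681) probed with GST-tagged S. cerevisiae TFs (full-length or DBD) made by in vitro transcription/translation (PURExpress), about 100-200 nM. Bound TF was detected with fluorescent anti-GST. Each ungapped 8-mer (which stands for itself and its reverse complement) is scored by the PBM enrichment score (E-score), a modified Wilcoxon-Mann-Whitney statistic from -0.5 to +0.5, computed with the Universal PBM Analysis Suite. Scale: above 0.35 generally sequence-specific binding.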

First: TAACAGCA
Second: GCTGAGGA
The “PBM E-score” value of the first is higher: 0.208 for the first, -0.138 for the second.

Going from ACGGTTAG to GCATCGGA, the “PBM E-score” value rises from -0.101 to -0.0715.

First: CGGATTCA
Second: ACGTACCA
The “PBM E-score” value of the first is lower: -0.136 for the first, 0.0585 for the second.

First: AATCTCTC
Second: CTTTGACC
The “PBM E-score” value of the first is lower: -0.0138 for the first, 0.0618 for the second.

Compared with GGCCTTGA, TCTTTCAA is higher in “PBM E-score” value: -0.00182 for the first, 0.0038 for the second.

Going from GGGTATTA to ACCCGAAA, the “PBM E-score” value falls from -0.033 to -0.0369.

Compared with ACGAGGTC, GGCCGTAC is higher in “PBM E-score” value: -0.144 for the first, -0.105 for the second.

Compared with GCGGGTAA, AGCATTAT is higher in “PBM E-score” value: -0.164 for the first, 0.146 for the second.

First: CATAGAGG
Second: CGTCATGA
The “PBM E-score” value of the first is higher: 0.137 for the first, -0.0741 for the second.

Compared with ATACCGAG, ACTGGTAC is higher in “PBM E-score” value: -0.0998 for the first, -0.042 for the second.

Compared with ATTTGCCC, CGTGAACA is higher in “PBM E-score” value: -0.0699 for the first, 0.108 for the second.

Compared with AATTAGGC, ATATGTGC is lower in “PBM E-score” value: 0.165 for the first, 0.0292 for the second.

Compared with CTCATTTC, AATCCGGC is lower in “PBM E-score” value: 0.102 for the first, -0.249 for the second.

Going from GTCCTTAA to CCTAATTA, the “PBM E-score” value rises from 0.0485 to 0.0788.

First: CCCCCATC
Second: TCCGTCCA
The “PBM E-score” value of the first is lower: -0.328 for the first, -0.282 for the second.

Compared with ATAGTCTA, TAGGTCAA is higher in “PBM E-score” value: -0.101 for the first, 0.0607 for the second.

Going from CGTAATAG to CGTACCGA, the “PBM E-score” value falls from 0.24 to -0.124.

Compared with CCTTTCTC, CAGTCATC is lower in “PBM E-score” value: -0.0866 for the first, -0.198 for the second.

Going from CCACCTGC to ATATATTC, the “PBM E-score” value rises from -0.0492 to 0.103.

Going from CTGCATCC to ACAAACAA, the “PBM E-score” value rises from -0.191 to 0.126.

First: AAACTCTT
Second: GACAAGGA
The “PBM E-score” value of the first is higher: 0.0601 for the first, 0.0365 for the second.

First: CTAGTGCC
Second: CCTTGGAA
The “PBM E-score” value of the first is higher: 0.225 for the first, 0.0528 for the second.

Compared with GTGGCGGA, AGGATACA is higher in “PBM E-score” value: -0.128 for the first, 0.157 for the second.

Compared with CCTGAGCA, ACTACCAC is lower in “PBM E-score” value: 0.118 for the first, -0.0746 for the second.

Going from AATCCGTC to CGAAGAAG, the “PBM E-score” value rises from -0.126 to 0.0168.

First: ACCCAAGC
Second: GAACGGGA
The “PBM E-score” value of the first is lower: -0.261 for the first, 0.0191 for the second.

First: AGGGATTA
Second: AGAAATCC
The “PBM E-score” value of the first is higher: 0.0194 for the first, -0.161 for the second.

First: GTACACAC
Second: GAGTGGCA
The “PBM E-score” value of the first is higher: 0.276 for the first, -0.298 for the second.

Compared with AGTCTCAA, ACTACCTG is higher in “PBM E-score” value: -0.169 for the first, 0.0234 for the second.

Compared with ACAAGGCA, CAGCCACG is lower in “PBM E-score” value: 0.449 for the first, -0.185 for the second.

Compared with CTTGATGA, CTAAATAC is lower in “PBM E-score” value: 0.0927 for the first, 0.0705 for the second.

Going from TGACTAAA to AAAAGGCT, the “PBM E-score” value rises from 0.0227 to 0.0632.

Compared with ACTAGGTA, CCGACATA is lower in “PBM E-score” value: 0.254 for the first, 0.126 for the second.

First: TGGGCCCA
Second: TAACCAAA
The “PBM E-score” value of the first is lower: -0.254 for the first, 0.121 for the second.

Going from GGCGTAAA to ACCGTCGA, the “PBM E-score” value falls from 0.146 to -0.0212.

First: ATTGAGAA
Second: AGTGGTAA
The “PBM E-score” value of the first is lower: 0.0935 for the first, 0.115 for the second.

Compared with CGTCCATC, CGAAGATC is higher in “PBM E-score” value: -0.286 for the first, 0.0227 for the second.

Going from ACCTGTCG to CGTCGAAG, the “PBM E-score” value falls from 0.177 to -0.0226.

Going from CCCCCAAG to AGCCGAAC, the “PBM E-score” value falls from -0.16 to -0.186.

First: CCAGCACG
Second: GACCGCAA
The “PBM E-score” value of the first is lower: -0.147 for the first, -0.146 for the second.

First: GCAACCTA
Second: GCGGTTCA
The “PBM E-score” value of the first is higher: 0.121 for the first, 0.0528 for the second.

Going from CATCTCTA to AAGAACCG, the “PBM E-score” value rises from -0.0508 to 0.0999.

Compared with ACATTCCT, ACGAACAG is higher in “PBM E-score” value: -0.105 for the first, -0.0228 for the second.

Compared with CGCCGATC, TGGGACAA is higher in “PBM E-score” value: -0.23 for the first, 0.0777 for the second.

First: GCCAAAAA
Second: ATAAACAC
The “PBM E-score” value of the first is lower: -0.0326 for the first, 0.259 for the second.

Compared with CACAAACC, ATGCACGA is lower in “PBM E-score” value: -0.0656 for the first, -0.0737 for the second.

Compared with AACTACAT, ACTTCTAT is lower in “PBM E-score” value: 0.336 for the first, 0.0312 for the second.

First: CCTCCAGG
Second: CTCAGGAC
The “PBM E-score” value of the first is higher: 0.124 for the first, -0.249 for the second.

First: ACATGGAG
Second: ACAAGTGT
The “PBM E-score” value of the first is higher: 0.189 for the first, 0.109 for the second.

Going from ATAATTAA to AGCATCAC, the “PBM E-score” value falls from 0.227 to -0.184.

First: GAGCTCCA
Second: CGCCCTGA
The “PBM E-score” value of the first is higher: -0.156 for the first, -0.197 for the second.

Going from CTGGTATC to GCATGAAA, the “PBM E-score” value rises from -0.165 to -0.0572.

Compared with GCACCGCC, ACGATCTG is higher in “PBM E-score” value: -0.168 for the first, -0.094 for the second.

First: AGCAGGGC
Second: GATCGGTA
The “PBM E-score” value of the first is higher: -0.0277 for the first, -0.128 for the second.

Going from AAGACATT to GCAGCAGA, the “PBM E-score” value falls from 0.0444 to -0.144.

First: ATCTGTGG
Second: GCGTTACA
The “PBM E-score” value of the first is lower: -0.213 for the first, 0.162 for the second.

First: ATTCCGGA
Second: GCAAAAAA
The “PBM E-score” value of the first is lower: -0.151 for the first, 0.203 for the second.

Going from GAAAAAGA to GCCCTGTA, the “PBM E-score” value rises from 0.0781 to 0.0831.

Going from AGTACTTC to ATAATCCG, the “PBM E-score” value falls from 0.013 to -0.0686.

First: GTTTTCTA
Second: CGTATCCC
The “PBM E-score” value of the first is higher: 0.137 for the first, -0.105 for the second.

Going from AGAACCAG to GGTTCAAA, the “PBM E-score” value rises from -0.14 to -0.0312.

First: ATTAAGTG
Second: CGCACCAG
The “PBM E-score” value of the first is higher: 0.081 for the first, -0.0361 for the second.

First: CAGGAATC
Second: TATAATGA
The “PBM E-score” value of the first is lower: -0.0987 for the first, -0.00965 for the second.

Compared with ATTTCATC, GCGCCACC is lower in “PBM E-score” value: -0.0147 for the first, -0.185 for the second.

First: GCGCGGGA
Second: CAGACGCC
The “PBM E-score” value of the first is lower: -0.228 for the first, -0.0483 for the second.

Going from ATTTGCAG to GCGTTCCA, the “PBM E-score” value falls from 0.0042 to -0.118.

Going from AGGCGAAG to CCGCCCAA, the “PBM E-score” value falls from -0.118 to -0.194.

Compared with AGTCGTAG, GCGTTTCC is higher in “PBM E-score” value: -0.174 for the first, 0.0476 for the second.

Going from GCATATTA to CCTTGGCC, the “PBM E-score” value falls from 0.115 to -0.135.

Going from CAACGCTC to CAGAGGAG, the “PBM E-score” value falls from -0.067 to -0.273.

Compared with ATTGGCCG, CCTTTCAC is higher in “PBM E-score” value: -0.176 for the first, 0.0961 for the second.

Compared with AGCGTGAT, GTACGTCA is higher in “PBM E-score” value: -0.153 for the first, 0.0225 for the second.

Compared with TACAGGAA, CTACCTTA is lower in “PBM E-score” value: 0.43 for the first, 0.0561 for the second.

Going from ATGATTCG to GAGTTCTA, the “PBM E-score” value rises from -0.0643 to 0.0214.

Compared with AACACCTT, GACGAGGC is lower in “PBM E-score” value: 0.258 for the first, -0.0659 for the second.

Compared with TAGCCACA, TCTTCCAA is higher in “PBM E-score” value: -0.0656 for the first, 0.00517 for the second.

Going from GACGTTCC to GAATACTA, the “PBM E-score” value rises from 0.0787 to 0.182.

Compared with ATAGGTTA, AGTAGACT is lower in “PBM E-score” value: 0.153 for the first, -0.00298 for the second.

Compared with CTTGTTGA, AATTCTAA is lower in “PBM E-score” value: 0.262 for the first, 0.0387 for the second.

First: ACATTGCT
Second: TGGGGAAA
The “PBM E-score” value of the first is higher: 0.207 for the first, -0.146 for the second.

First: CGGTCCTA
Second: CAGCATAA
The “PBM E-score” value of the first is lower: -0.284 for the first, 0.0887 for the second.

Compared with GGATTCAA, CCTAAATC is higher in “PBM E-score” value: -0.157 for the first, 0.101 for the second.

Compared with CATAAAAA, AAACATCG is lower in “PBM E-score” value: 0.116 for the first, 0.00325 for the second.

Compared with AATCGGCT, GCCCATCC is lower in “PBM E-score” value: -0.111 for the first, -0.144 for the second.

First: CATTGTGC
Second: TACTAACA
The “PBM E-score” value of the first is lower: 0.0988 for the first, 0.238 for the second.

Going from CGGCGGCC to CAAAGTTC, the “PBM E-score” value rises from -0.248 to -0.0273.
